Data published in PubChem BioAssay AID1240 (Sanford-Burnham Center for Chemical Genomics, 2008).
Among all 50,000 compounds or so, about 800 (1.6%) showed an effect of 50% or more. The list shows a part of the results.

biological target: Bcl-2-like protein 10 (Homo sapiens) (UniProt Q9HD36); experiment: Phenotype converters, Bcl-B/TR3 peptide binding displacement, primary biochemical FP (AID 1240); settings: GST-Bcl-B / FITC-TR3 peptide fluorescence polarization; stronger effect = higher value; compound at 3.75 mg/L;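 note: 0% = Bcl-B with tracer peptide and DMSO and 100% = tracer peptide lacking Bcl-B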
UniProt Q9HD36, sequence (Q9HD36 whole entry, looked up): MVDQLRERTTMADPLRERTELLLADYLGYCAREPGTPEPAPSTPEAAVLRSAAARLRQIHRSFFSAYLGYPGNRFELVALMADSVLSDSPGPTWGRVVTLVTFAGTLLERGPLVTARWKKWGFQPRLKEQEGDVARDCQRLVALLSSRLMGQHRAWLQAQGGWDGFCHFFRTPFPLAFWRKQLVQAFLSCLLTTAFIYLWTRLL

SMILES | displacement
COc1ccc(/C=C(C(=O)O)/C(C)=C/C(=O)O)c(OC)c1 | 7.5%
CCn1c(=O)c(C(=O)NCCN2CCOCC2)c(O)c2ccccc21 | 1.4%
CC(=O)Nc1ccc(Oc2ccc(NC(C)=O)c(NC(C)=O)c2)cc1 | -0.1%
O=C(O)C(c1ccccc1)C(c1ccccc1)c1ccccc1 (centres undefined) | -1.6%
C=C(C)c1cccc(C(C)(C)NC(=O)NCc2ccco2)c1 | -1.9%
O=C(COc1ccccc1)N1N=C(c2ccc(Cl)cc2)CC1(O)C(F)(F)F (centres undefined) | 4.5%
O=C(/C=C/c1cccc([N+](=O)[O-])c1)Nc1ccc(N2CCCCC2)cc1 | -1.4%
COc1ccc(-c2cc(C(=O)Nc3sc(C)c(C)c3C#N)c3ccccc3n2)c(OC)c1 | -1.7%
CC1=CC(C)(C)NC(=S)N1c1ccc2ccccc2c1 | -0.3%
O=S(=O)(c1ccccc1)N(Cc1ccc(F)cc1)c1ccccc1 | -1.1%
CCc1ccc(NC(=O)C(=O)NCc2ccccc2OC)cc1 | 6.8%
O=C1Nc2ccccc2/C1=c1/sc2nc3ccccc3n2c1=O | 13.2%
CC(C)c1ccc(CNC(=O)CSCC(=O)Nc2ccccc2)cc1 | -11.1%
Cc1ccc(-c2noc(COc3cccc(C)c3)n2)cc1 | 3.2%
COc1ccc(NC(=O)CCN2C(=O)S/C(=C/c3ccc(OC)c(OC)c3)C2=O)cc1 | -1.4%
COc1ccc(/C=C2\SC(=S)N(CCCCCC(=O)Nc3ccccc3C(=O)O)C2=O)cc1 | 8.3%
COc1ccc(/C(C)=N\N=C2\NC(=O)CC(C(=O)NCCc3ccc(S(N)(=O)=O)cc3)S2)cc1 (centres undefined) | -2%
O=C1C=Cc2ccccc2/C1=N/Oc1ccc2noc3c2c1C(=O)c1ccccc1-3 | 25.9%
Cc1ccc(N(CC(=O)NC2CCCC2)S(=O)(=O)c2ccccc2)cc1 | 7.2%
CCOC(=O)C1=C(C)N=c2s/c(=C\c3cccc([N+](=O)[O-])c3)c(=O)n2C1c1ccc(OC(C)=O)cc1 (centres undefined) | 8.6%
CCCCCC(=O)NNC(=O)Nc1ccccc1 | -4.8%
O=c1oc2ccccc2cc1-c1nc2ccccc2s1 | -1%
CCOc1ccc(S(=O)(=O)N(CC(=O)Nc2ccc(C)cc2)c2ccc(C)cc2)cc1 | 16.5%
O=C(Nc1ccc(-c2ccc(Cl)cc2)cc1)c1ccco1 | 12.5%
Cc1c(NC(=O)CN2C(=O)/C(=C/c3ccccc3Cl)SC2=S)c(=O)n(-c2ccccc2)n1C | 12.8%
CC12CC3CC(C)(C1)CC(C(=O)Nc1ccc(Cl)cc1)(C3)C2 | 6.9%
Cc1sc2nc(SCC(=O)NCCO)n(-c3ccccc3)c(=O)c2c1C | 1.9%
Cc1ccc(S(=O)(=O)Nc2cc(C)c(O)c(Sc3ncn[nH]3)c2)cc1 | 19.8%
Cc1ccc(N2CCN(/N=C\c3ccccc3C(F)(F)F)CC2)cc1 | -1.7%
